# Measurements taken from the supplement of paper PMC10681739.
# In all, about 2,700 sequences were measured (“arbitrary fluorescence units”: median about 4,100, highest 2% from about 54,000 on). This is one part of the list.
# Target: T1, ETS1 (UniProt P14921)
# T1 sequence: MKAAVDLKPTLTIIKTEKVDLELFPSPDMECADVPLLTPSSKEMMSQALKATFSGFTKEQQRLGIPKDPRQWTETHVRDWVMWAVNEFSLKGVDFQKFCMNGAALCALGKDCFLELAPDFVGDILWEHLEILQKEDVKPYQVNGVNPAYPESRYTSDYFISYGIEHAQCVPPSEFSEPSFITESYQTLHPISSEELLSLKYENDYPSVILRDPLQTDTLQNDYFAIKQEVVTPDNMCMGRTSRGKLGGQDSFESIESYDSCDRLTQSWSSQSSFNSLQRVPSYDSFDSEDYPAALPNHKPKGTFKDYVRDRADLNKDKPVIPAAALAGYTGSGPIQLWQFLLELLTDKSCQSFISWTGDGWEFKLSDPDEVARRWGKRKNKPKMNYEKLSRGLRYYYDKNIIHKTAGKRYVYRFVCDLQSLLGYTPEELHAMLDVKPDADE
# Assay: ETS1 binding intensity (PBM fluorescence) (arbitrary fluorescence units); higher = stronger binding
# Details: ETS1 concentration 10 nM
# Experimental: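 gcPBM on wild-type 36-bp genomic probes with two neighbouring ETS1 sites (4-24 bp apart). Recombinant human ETS1 (10 nM) was detected with anti-ETS1 antibody fluorescence. Values are medians over 3 replicate spots. The probes sit in constant array flanks that are not printed.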
row,Sequence,ETS1 binding intensity
1,CGTCACACAGGAAGCTGCAGGGCTTTCCTGCGGCAT,3470
2,TTCCCCTTCCTAGGCCGCCCGGGCCACTTCCTGCGG,1180
3,AATCTAATTCCGCCACCGATCTGACAGGAAGCAGAG,451
4,GGCCGCGCTTCCTTCGCTACAAAAAGGAAGCACATC,1760
5,TTAGGAAATGTTGCTTCCTTTCCCACCACCTTCTGT,649
6,TCAGAGAACCTTCCGGCGCCTGTTTCCTGGCAGTGG,4190
7,TTCTGGGTTTCCTGAGCTGCAAAGCATCCTGCTCTC,1990
8,TGAAGCCATCCGGTTGTGGTTATTTGTTCCGGCTGC,15200
9,GCTCCAGGAAAATGACTAATATCAGATTTCCTGTCA,1250
10,ACCTCCAGGAAGCGAGAATGCAGAGTTTCCTCTGTG,816
11,GAGGCCCGGGAAATAGCCGCCGCCGGATGGGCGCTT,350
12,AGGAAAAAACCGGAAGCAAACCGGAAAGAGTGTGCC,17900
13,CCTGGGGAGAGGAAGCGGGGGCAGGAAAAGGCCGAC,898
14,GTGAGCAGGATGCCTGGGTCTCCAGTTCCTGCCAGT,436
15,GCCTGCCATGTATCCGGTGCCTTCCTGGGTGTGCCA,23200
16,AGGGCTCCCTTTCCTGTTATACTTCCTGTGTTACAT,12500
17,CGCCGGGCCGGAAGCCGGCGCCGGGAAGCGCGTGTG,11200
18,CTAAAGCTTCCTCCTTTTCACAAGCTTCCTGTTTCT,3590
19,AAGAAAGGCAGGAAGCATAAACAGGAAGTTAGTGGA,6810
20,TTTGGCTGGTATTTCCTTGCGGATGATCTTCCCAAA,414
21,GCCACTTCCCGCAGCACCAGCGGCTCCTTCCGGTCC,16600
22,CCACAGGCAGGATGCAGCATAGGAGGATGTGGGCAT,3090
23,AGCGGCGGAACCTGCCCGCCGGTGTCTTCCTGCCCA,284
24,ACAAAGGCAGGAAGGGGTTTGTAGGAAGTGTTCTGT,1210
25,AATAAACAGGAAAAGTCAGCATGCAGGAAGATTACA,350

row,Sequence,ETS1 binding intensity
1,GAGAAAGGAAATATGCATATGCTCCAGGATGTCTGT,589
2,GGTTTAGGCTTCCGCCCCCAGCCCGGAACCTTTCTT,8110
3,GCAAATGCTTCCTATCTATGAGACAGGAAATGCTCT,6150
4,GAGGACAGAGCTTCCTGTGTCAGGAAGACAGGGGAG,15200
5,TTCTTGACTTCCTTAACCTTGCAGAGGAAGTCTGTT,3300
6,AAGGCGGAGAGGAAGCGGTAGAAGGAAGCTTTCTCT,662
7,CCTCAGGAAACAGGTGCTCCTGGAATGTTTCCTGCC,846
8,GGGCAGGCAGCCGGATTCACCGGAAAGTGACGCTTC,388
9,TCTTTGCCATTTCCCCATTGGCCGGATGGGGCTACC,960
10,GAGCAGGAAGGCCCTGGACCTGGCCCAGGAAACCAT,176
11,CAAACACATCCTGTTTGCACTTGACTTCCTGTTTTG,37400
12,CACAACAGCTGTTTCCTAGCCTTCCTGTGACCACAG,420
13,TCCGGTCGACGGCGGAAGGCGGAAGGCGGAGCGGTC,335
14,AAAGATGTTTCCTATATAGCAACAGGAAATCTCACT,1520
15,TAGAGGAGCTGTTTCCTGCCGGAACTAATTATCTCG,10900
16,CACTGCTTCCGGGCCAGGACAAGCGCTTCCGGTCCC,24400
17,CGACAGGATGACGCCTCCGTCTTTGTGCTTCCTGGG,868
18,AGAGAAAGGGGCCGGAAACGGAAGTGCGCGCCGAGG,12000
19,CTGCCCATCCTGCTCCTAGCAGCCACAGGAAGCTCT,1580
20,TAGCGCTCAGGAAGTACGACACCGGAAGGGGTGGGC,3110
21,TATAAAACCATTTCCTTCTCTGGGAAATGAGATGTC,3370
22,CTCTGCACTTCCTCTGTGGGTTTACATCCTGTGGGC,13000
23,TACTGTTTTCTTCCTGAGTCATATCCTCTCATTATG,739
24,GAAGGTTGACAGACTTCCTTCCGCACTTGGGTTTTT,3050
25,GACCACGCATTTCCTGCGCCCCCGGAAGTGGTGATA,23600

row,Sequence,ETS1 binding intensity
1,GCGGCTGCGGGGGAAGTAGGGGGGAAGTGGGCGGGC,1100
2,CCTACCCAGGAAGCCGCGGAGGGCCGGATATCACCG,1640
3,CCCGGTAGCCGCCGGAAAACTTCCGCCGAGACCGGA,4420
4,AGAAGGGGAAATGACTGGTAGAGAGAGGAAGCCCGT,286
5,GACCGCAGGAAGGGACGCGGCCGCACTTCCGGCGAC,8620
6,TAGATGAAAGGATGTCACAGGCAGGAAAATGCCTTG,193
7,TGTGCGGAAGAAGCGGCCCATGCTCTCGGAAGACGC,181
8,CCATTCATTTCCTGCCTCCCCGAGTTCCGGCTGCGG,35800
9,TCCCTGACTTCCTGTTCTCCTCACATCCTGTCACTA,29900
10,GCTGCACAGCAGGAAGTGAGCAGGAAGTGAACTGGG,10200
11,ACCACCCTGACCACTTCCTTCCTGACCAGGCCAGGA,3340
12,CGTCCACTGGAGGCTTCCTTCCGGCGCCCGCGTGCC,3590
13,CTGGGCCGGAAATGCCTAATCTGAACTTCCGCCCTG,20200
14,GAGGCTTCTCGGATGTGCAGACAGGAAGCACTGGCC,1470
15,AAAACTGTATCCGGGGGACGCCGTTTCCCTGCAGGG,8980
16,TGTGCTCACAGGAAGTGGCAGCATCCGGCCTCCCAT,15500
17,AGGGACAACCCGGAAACCACATTTCCCAGCGTGCCG,4050
18,AGTGCACTTCCTGGTGCTACCTTCATTTCCTGCCCT,19000
19,GATCAGTTTCCGGCTGTGGACTACATTTCCCAGAAG,25800
20,GAGAAAGGCTCTTTTCCTGCTTCCTGCTGTGTTTGC,7060
21,TACCTGTGGGATGTTGGAATGAACAGGAAATGCTAG,629
22,TCTATGGTTTCCGGAGGCCTCACCGGAAGCCCTCGT,14100
23,TCACCCGGGATGTTTACCTCAGCCCATCCTGCCTGG,244
24,AAAGGCGGCAGGATGGAGGGGAGGATGTCGCTTCAG,359
25,AGAAGCACACAAGGAAGTGTTTCCGGGACAGAGGGT,9030

row,Sequence,ETS1 binding intensity
1,GGAAGGGAGAGGGCGGAACTTCCGGCTGAGCCCCAG,21300
2,GAACTGAGAGCGGAAATTACAGGAAGGCCTATTGTG,8570
3,AGAAAGGAAGTCATTGAGTTCATTCCAGGAAGCACA,1350
4,TTACAAACAGCCTTCCGTCTCTTCCTGGTCAAGTCC,345
5,GGGCCTCGATTTCCGGGCGCGCTTCCGGGCCCCGGC,22700
6,ATGCCGTCGTTTCCGGGGCTGCTTCCGAGCCGGACC,16000
7,CAGACAGGAAGCACTGGCCAGGACTGCGGATGTGAA,7680
8,AGATCTAGAGGAAGTCTTGGCCAGGAAGACAACAAT,562
9,ACCAGTAGATGCGGATGCAGTTTCCGGACGAGTCAT,2840
10,GCCCGCTGTGGCGGATGAAAGGAAGCCGTCGGCGTG,179
11,CGCGCCGGGTGTTTCCGCTACTTCCCTGCGGCGGGG,7930
12,ACGGCAAGGGAAGTGCAGATGGGCAGGAAGTCCCTC,989
13,CCAGCAGCTTCCTTGGGAAGATAGAGGATGTTGTGA,807
14,CACAGAAAAAGGAAGTTAGTGCATCCTGGAGCATAT,2350
15,TGCTTGGGCCCCACTTCCTTCCTGCACCCCCGGGGT,4480
16,AGGCGAAGCTTCCTAGAGCGGCCCGGAAGTGCCCGG,2040
17,TGGAGTGTCATTTCCTCTACAGGATGTGTCCCTGTG,12800
18,GCAGCACAAAGGAAGTTACCTCTTTCCGTTCTGGCC,2430
19,GTATGGGATGTGGGCGGCCAGGACAAGATCCGGCCG,250
20,CCAGCAGGAAGTGGCCCACCTGCAACAGGAATGCAG,9950
21,GCAGGATGCAGTGTGGAAGGATGTACAGAGGGTGGC,308
22,TGAAGACTACATTTCCCAACATCCTTTACAGTTGGG,536
23,CGCTTCCTTTCAATCCCCACATCCTCACCACCTGTT,11900
24,TCAGGAGGGCCATTTCCCTTTTCCTGCCCAGATGCT,3000
25,GAGTTTAGCAGGAAGAGAAAACAGGAATAGTGACTC,389

row,Sequence,ETS1 binding intensity
1,CGGACGCAGACACGGAAGCGGAAGTGCTGCCGAGCT,4820
2,AGCCTCGAGACCCGGAAAAGGAAGCCCGAAGGACTC,437
3,ATCTCGCGCTGCCGGAAGCGGAACTACCCGGGTCCT,4680
4,AGAGGCAGAAGGAAACAGCCAGCTTCCTGAAGGGAA,660
5,GGGCCTCCGGAAAAACGCCCCGACTTCCTGCCCCGC,5160
6,GTGTCGGAAATAACCCAGCACGCGGCACTTCCTGTC,4740
7,CACAGAGCACAGGAAGTGAAGAGGAAACAGTGACCT,9590
8,GCCACCGCCCCTTCCGGGTCCGGAACGGCTCCAGCT,7050
9,CAAAGTTCCTGTCTAGTTATTTTTTTACATCCTTTG,9860
10,ATAGAGCTCTGGAGGAAGCAGGAAGCGTGAGCAAGG,589
11,AAGGAGAGGAAACCTGACCACGACAGGAAGTGACTT,2770
12,TGGCCCTGTAACTTCCTGATTTCCTGTGTACCTGTC,12000
13,TCCTCTTTCCGTTGTGAGCACCCTGCATCCTGGTGG,3800
14,GAGGGAGTAACACAGGAAGGAAGTGACTAGCACCAG,1590
15,CGCGCCCGCTGCCCGGAAGGAAGCCGTGGGCTGGCC,419
16,TGGCTGCTGTCTTCCGTGGTCGGATGTCCATGAAGG,266
17,GGCTCACTTCCGGCCTCAGAGCCGCTTCCGGCGCGC,71400
18,CAATTGAGGAAACAGGACCAAAGACAGGAAATGGCT,2860
19,CGCCAGCCAACTTCCTCATCAGGAAGTCTTAGGGAG,4520
20,GGACAGGATTTTGAGCTCTGGTTACAGCATCCTGCA,216
21,CGGTTGCGGCGCTTCCTGGGCGGATGGCTTGAAATT,2790
22,TGGGAGGAAATGCCACAGCTGGTTGTGTTTCCGATT,587
23,CCTTCAGGAAGCAGGACTCTGATGGCTTCCTCAAAC,626
24,GGTGCTCACGGATGCTACGCTTGTTCCTGTCTCCTC,370
25,AGACAGCGGAAGTGGCTAATAATATTTCCTCCCCTC,20100
